Our source for the inhibition values is PubChem BioAssay AID485344 (National Center for Advancing Translational Sciences (NCATS), 2010).

Among all 340,000 compounds or so, about 6,900 (2%) were called active. No stated cut-off is given here; in the data, active means inhibition above about 30%; inactive means below that, where a call was filed. The entries are a selection whose mix differs from that of the whole data set. Entries without a call were filed so in the source.

Sequence of UniProt P14416 (P14416 whole entry, looked up): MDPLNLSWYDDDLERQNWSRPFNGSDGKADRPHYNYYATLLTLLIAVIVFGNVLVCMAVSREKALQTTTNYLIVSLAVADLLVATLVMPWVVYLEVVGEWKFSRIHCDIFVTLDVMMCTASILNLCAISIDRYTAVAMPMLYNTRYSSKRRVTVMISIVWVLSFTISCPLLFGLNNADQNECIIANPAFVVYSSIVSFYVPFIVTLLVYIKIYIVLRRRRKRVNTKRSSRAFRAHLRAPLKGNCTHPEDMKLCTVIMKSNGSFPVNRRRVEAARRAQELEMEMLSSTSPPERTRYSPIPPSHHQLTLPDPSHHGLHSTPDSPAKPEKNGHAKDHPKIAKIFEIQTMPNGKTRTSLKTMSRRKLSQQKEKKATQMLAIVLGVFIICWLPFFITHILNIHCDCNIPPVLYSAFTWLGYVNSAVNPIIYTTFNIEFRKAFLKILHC

This test addresses D(2) dopamine receptor (Homo sapiens) (UniProt P14416). The experiment in a line: HTS Assay for Allosteric Antagonists of the Human D2 Dopamine Receptor: Primary Screen for Antagonists. Further: 0% is about no effect. Particulars: HEK293 TREx D2 cells, calcium flux, dopamine EC80; at 10 µM; stronger effect = higher value. In a few lines:
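Cells plated overnight at 30 C with tetracycline; no-wash calcium dye, 30–90 min RT; 10 s baseline; compound pinned; 180 s read; EC80 dopamine added; another 180 s read.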
(Calcium flux is commonly read through the fluorescence of an indicator in the cells.)
For `O=C(Cc1ccc(Cl)cc1)Nc1ccc(-c2cc3ccccc3oc2=O)c(Cl)c1`, the inhibition (as a rule, the change of the read-out against control, counted positive when it falls) is active: 46.5%. The result for `Cc1cc(C(=O)NCc2ccccc2)c2c(C)nn(-c3cccc(Cl)c3C)c2n1` reads 10.9%; that for `CNC(=O)c1nn(-c2ccc(Cl)cc2)ccc1=O`, active: 33.4%.

Turning to `Cc1ccc(NC(=O)C2CCCN2S(=O)(=O)c2ccc3nc(-c4ccccc4)[nH]c3c2)cc1C` (centres undefined), the inhibition was -5.71%.

`COc1ccc(C(CNC(=O)c2ccc3c(c2)OCCO3)N(C)C)cc1` (centres undefined): the inhibition was active: 44.5%. The result for `Cc1ccccc1C(=O)Nc1ccccc1-c1nc(-c2ccccc2)no1` reads 25.9%; that for `CCc1nc2nc(C)c(NS(=O)(=O)c3ccc(F)c(C)c3)c(=O)n2[nH]1`, 1.09%.

Regarding `CCOc1ccc2nc(N3CCCC(C(=O)NCCc4ccc(C)cc4)C3)sc2c1` (centres undefined), the inhibition is 6.34%. The result for `CC(C(=O)Nc1ccccc1)n1nnc2sc3c(c2c1=O)CCCC3` (centres undefined) reads 4.56%; that for `Cc1ccc(NC(=O)CSc2nc3ccccc3n2CC(=O)N(C)C2CCCCC2)cc1C`, 24.8%.

`Cc1c2cnn(-c3ccccc3)c(=O)c2c(C)n1C(C)C(=O)NCc1cccc(Br)c1` (centres undefined): the inhibition is -4.77%. For `COc1cccc(NC(=O)Cn2c(=O)n(CCc3cccc(C)c3)c(=O)c3ccccc32)c1`, the inhibition came out at 5.87%. To `CCOCCCn1c(=N)c(C(=O)NCc2ccccc2)cc2c(=O)n3ccccc3nc21` belongs -17.6%; to `Cc1cccc(NC(=O)c2c(NC(=O)c3ccco3)sc3c2CCC(C)C3)c1` (centres undefined), -28.3%; to `COc1ccc(-n2nc(-c3ccc(C)cc3)c3cnc4cc(F)c(F)cc4c32)cc1`, -0.44%.

With `COc1cccc(CNC(=O)c2ccc3c(c2)nc2n3CCC(C)C2)c1` (centres undefined), the inhibition is -7.46%. The result for `CCCCNCCOCCOc1ccccc1-c1ccccc1` reads active: 76.4%. As for `CCCN(CCC)C(=O)c1nn(C)c2c1CSc1ccccc1-2`, the inhibition is 20.6%. The result for `CC(C)C(=O)Nc1cccc(C(=O)Nc2nnc(C(F)(F)F)s2)c1` reads -5.07%; that for `CCOc1ccccc1NC(=O)CCc1c(C)nc2cc(-c3ccccc3)nn2c1C`, -4.12%; that for `Cc1ccc(NC(=O)CN(c2ccc(C)cc2)S(=O)(=O)c2cccc3nonc23)cc1`, -1.14%. The result for `Cc1ccc2nc(CN3CCN(S(=O)(=O)c4ccc(C)c(C)c4)CC3)oc2c1` reads 9.3%. The result for `CC(=O)c1c(C)n(-c2ccc(C)cc2)c2ccc(OC(=O)COc3ccccc3)cc12` reads 0.182%.

Take `Cc1ccc(C2CC(=O)n3nc(-c4cccc(C)c4)nc3S2)cc1` (centres undefined): the inhibition was -8.73%. For the compound `CN(C)c1ccc(CNC(=O)C2CCN(S(=O)(=O)c3ccc4[nH]c(=O)ccc4c3)CC2)cc1`, the inhibition turned out to be 11.7%. Take `CC(C)C(=O)Nc1nnc(SCc2cc(=O)n3ccccc3n2)s1`: the inhibition was -2.7%. Regarding `COc1cc(-c2ccno2)ccc1S(=O)(=O)N1CCN(c2ccccc2)CC1`, the inhibition was -28%. The result for `CC1=C(C(=O)Nc2cccnc2)C(c2ccccc2Cl)n2nc(-c3ccccc3)nc2N1` (centres undefined) reads 3.56%. To `Cc1cc(NC(=O)CSc2ncc(C(=O)Nc3ccc(C)c(C)c3)c(=O)n2C)no1` belongs 20.7%; to `Cc1cccc(Nc2nc3c(S(=O)(=O)c4ccc(Br)cc4)nnn3c3ccsc23)c1C`, 3.28%. Take `Cc1cc(C)c2oc(-c3cccc(NC(=O)COc4ccccc4Cl)c3C)nc2c1`: the inhibition worked out at 23.2%. The result for `CCOc1ccccc1C(=O)NCc1ccc2c(c1)CCN2C(=O)c1ccccc1` reads 20.1%; that for `Cc1ccc(NC(=O)CCSc2nc(-c3ccc4c(c3)OCO4)cc(C(F)(F)F)n2)c(C)c1`, -9.16%; that for `COc1ccc(CCNC(=O)c2ccc(Cn3c(SCC(=O)NCCC(C)C)nc4cc5c(cc4c3=O)OCO5)cc2)cc1OC`, 0.241%. The result for `CS(=O)(=O)c1ncc(Cl)c(C(=O)Nc2c(C(=O)c3ccc(Cl)cc3)oc3ccccc23)n1` reads 25.3%. For the compound `Clc1cccc(-n2ncc3c(NCCCN4CCOCC4)ncnc32)c1`, the inhibition was 21.6%. The result for `CC1CCN(C(=O)CSc2nnc(NC(=O)Nc3ccccc3)s2)CC1` reads -4.98%; that for `Cc1ccc2c(c1)N(C(=O)CCC(=O)NCc1cccs1)CC(C)O2` (centres undefined), 10.5%; that for `COC(=O)c1ccccc1NC(=O)Cn1c(CCC(=O)O)ccc1-c1ccc(C)cc1`, 19.8%.

Regarding `Cc1cccc(CC(=O)Nc2c(C(=O)Nc3cccc(F)c3)oc3ccccc23)c1`, the inhibition is -10.3%. To `Cc1cc(C)cc(C(=O)O/N=C(\N)c2ccc(Br)cc2)c1` belongs active: 35.2%; to `CC1CCN(CC(O)CN2c3ccccc3Sc3ccccc32)CC1` (centres undefined), active: 70.9%.

Regarding `CCOC(=O)c1c(NC(=O)COc2ccc(C(C)(C)C)cc2)sc2c1CCCC2`, the inhibition was 2.66%.

On to `Cc1ccc(Cc2nc3ccccc3nc2SCC(=O)NCc2ccccc2Cl)cc1`, for which the inhibition was -2.92%. To `Cc1ccc(-c2nnn(CC(=O)N(c3ccccc3)C(C(=O)NC3CCCC3)c3ccco3)n2)o1` (centres undefined) belongs active: 32.8%.

In the case of `CCc1cccc(CC)c1NC(=O)Cn1nnc2sc3c(c2c1=O)CCCC3`, the inhibition was determined as 3.39%. To `Cc1ccc(NC(=O)c2c(C)nn(-c3ccccc3)c2-n2cccc2)c(Cl)c1` belongs -9.36%; to `CCOc1cccc(C(=O)N(Cc2ccc(F)cc2)Cc2ccco2)c1`, 0.538%; to `Cc1ccc(N2C(=O)CCSC23C(=O)N(Cc2ccc(F)cc2)c2ccccc23)cc1` (centres undefined), 5.11%. As for `COCCn1c(SCC(=O)c2ccc(F)cc2)nc2cc(C(=O)NC3CCCC3)ccc2c1=O`, the inhibition worked out at 2.72%. The result for `Cc1ccc(N2C(=O)CS(=O)(=O)C23C(=O)N(Cc2ccc(Cl)cc2)c2ccccc23)cc1C` (centres undefined) reads 16%.

As to `COc1ccc(OC)c(NC(=O)Cn2c(=O)n(-c3ccc(Cl)cc3)c(=O)c3c(C)c(C)sc32)c1`, the inhibition was -6.61%. For `COc1ccc(Cl)cc1NC(=O)C1CCN(S(=O)(=O)c2ccc(F)cc2)CC1`, the inhibition is 14.5%. To `CCOc1ccccc1NC(=O)CSc1ccc2nc(-c3ccccc3)cn2n1` belongs 1.16%; to `CCOc1ccc(/C=C/c2nc(C#N)c(NCCCN(C)C)o2)cc1`, -1.75%; to `CC/C(=N/Nc1ccc(Cl)cc1)c1cnnc(SC)n1`, active: 33.6%. Turning to `CCc1ccc2oc(-c3ccc(NC(=O)c4cccc(Cl)c4Cl)cc3)nc2c1`, the inhibition is -6.6%. For the compound `O=C(Cn1cnc2c(nc3n2CCCCC3)c1=O)Nc1cccc(C(F)(F)F)c1`, the inhibition was -19.3%. The result for `COC(=O)c1ccccc1NC(=O)Cn1c(=O)n(CCCC(=O)NCc2ccccc2Cl)c(=O)c2ccccc21` reads -13.9%; that for `COc1ccc(N2CCN(CCCNC(=O)c3ccc4nc(Cc5ccccc5)oc4c3)CC2)cc1`, 3.58%; that for `CCOc1ccc(CNC(=O)C2CCCN(c3nn4cc(-c5ccc(F)cc5)nc4s3)C2)cc1` (centres undefined), -28.2%. The result for `COc1ccc(-n2c(=O)c3c(c4cc(OC)ccc4n3C)n(CC(=O)N3CCCC3)c2=O)cc1` reads 3.21%; that for `CCc1ccc(NC(=O)CCCc2nnc3n(CCCOC)c(=O)c4sccc4n23)cc1`, -0.53%; that for `Cc1cc(C)cc(NC(=O)c2cccc(C(=O)Nc3cc(C)cc(C)c3)c2)c1`, -7.63%. Regarding `CSc1cccc(NC(=O)CN2C(=O)CCc3cc(S(=O)(=O)N4CCCCC4)ccc32)c1`, the inhibition is -12.5%. To `Cc1ccc(NC(=O)C(C)Sc2nc3c(c(=O)[nH]2)CCCC3)cc1Cl` (centres undefined) belongs 6.69%. As for `COc1ccc2c(c1)CC(C(=O)NCCc1ccc(S(N)(=O)=O)cc1)CO2` (centres undefined), the inhibition amounted to 23.8%.

Turning to `Cc1ccc(C)c(OC(=O)CSc2nnc(-c3cccs3)o2)c1`, the inhibition is -18%.

`O=C1c2ccccc2C(=O)N1CCCc1nc(-c2ccccn2)no1`: the inhibition was active: 35.9%. On to `CCCC(=O)Nc1cc(-c2nnc3c4ccccc4c(C)nn23)ccc1C`, for which the inhibition was -4.83%. Turning to `Cn1c(=O)n(C)c2cc(N3CCOCC3)c(NS(=O)(=O)c3ccc(Cl)cc3)cc21`, the inhibition was -3.4%. The result for `Cc1ccc(-n2c(=O)c3c(cnn3C)n(CC(=O)Nc3cccc(C)c3)c2=O)cc1` reads -0.255%; that for `COc1ccccc1N1CCN(C(=O)c2cc3c(-c4ccccc4F)nn(C)c3s2)CC1`, -8.28%.

Take `COc1ccc(CCNC(=O)Cn2c(-c3ccc(F)cc3)cc(C(C)=O)c2C)cc1OC`: the inhibition was -7.73%. The result for `CCOC(=O)Cn1c(CN2CCN(c3ccc(OC)cc3)CC2)nc2c1c(=O)[nH]c(=O)n2C` reads 7.16%; that for `Cc1cc(=O)n(Cc2c(F)cccc2Cl)c2c1c(C)nn2C`, -2.48%; that for `CCOc1ccc2nc(N(Cc3cccnc3)C(C)=O)sc2c1`, 1.84%.

Turning to `O=C1CC(=O)Nc2cc(S(=O)(=O)Nc3ccc(F)cc3Cl)ccc2N1`, the inhibition is 5.79%. The result for `Cc1ccc(OCCSc2nc3ccc(NC(=O)c4ccco4)cc3s2)cc1` reads -12.2%; that for `COc1ccc(-c2cc3ccc(O)c(CN4CCCCC4C)c3oc2=O)cc1OC` (centres undefined), 9.09%; that for `CC(=O)N1CCc2cc(S(=O)(=O)NC(Cc3ccccc3)C(=O)NCc3ccccc3Cl)ccc21` (centres undefined), 13.9%. To `O=C(CCNS(=O)(=O)c1ccc2c(c1)CCN2C(=O)C1CC1)N1CCN(c2cccc(C(F)(F)F)c2)CC1` belongs 18%; to `COCc1oc2ccc(NS(=O)(=O)c3ccc(C)cc3)cc2c1C(=O)OC`, -7.66%; to `Cc1ccc(CNC(=O)CCc2nc3cccnc3n2Cc2ccccc2)cc1`, 11%.

For `CC(=O)Nc1ccc(NC(=O)C(NS(=O)(=O)c2ccc(Br)s2)c2ccccc2)cc1` (centres undefined), the inhibition was -8.88%. As to `COc1cc(NC(=O)Cn2nnnc2-c2ccccc2F)cc(OC)c1OC`, the inhibition is -13.2%. To `COc1ccc(C(=O)NC2CC3CCCC(C2)N3Cc2ccccc2)cc1OC` (centres undefined) belongs active: 81.7%; to `Cc1ccc(Cn2cc(S(=O)(=O)c3ccc(Cl)cc3)c(=O)c3cc4c(cc32)OCO4)cc1`, -0.324%. To `COCCn1c(C)cc(/C=C(\C#N)C(=O)OC(C)C(=O)Nc2ccc(NC(C)=O)cc2)c1C` (centres undefined) belongs active: 33.4%. With `CCN(C(=O)Cn1c(=O)n(Cc2ccc3c(c2)OCO3)c(=O)c2ccc(C(=O)NC3CCCCC3)cc21)c1cccc(C)c1`, the inhibition came to 10.8%. The result for `COc1ccc(OC)c(S(=O)(=O)N2CCN(Cc3nc4ccc(C)cc4o3)CC2)c1` reads 16.6%; that for `COC(=O)c1ccc(-n2c(/C=C/c3cc(OC)c(OC)c(OC)c3)nc3cc(Cl)ccc3c2=O)cc1`, 6.94%; that for `Cc1cccc2c(=O)cc(CSc3ccccc3NC(=O)C(C)(C)C)[nH]c12`, -8.13%.

Take `CCCC(=O)Nc1ccccc1C(=O)OCc1cc(=O)n2nc(C(C)C)sc2n1`: the inhibition is 4.08%.
